Experimental data from patent US20210115143A1 (R PHARM OVERSEAS, published 2021).

Assays:
[1] = target: human PD-L1 on primary human cells in the dendritic cell / CD4+ T cell mixed lymphocyte reaction (human, UniProt Q9NZQ7); test: cell-based or functional assay
[2] = target: T1, PD-L1-Fc, human IgG Fc fusion protein, human recombinant, HEK293-derived, Phe19-Thr239 (R&D systems Cat … (human, UniProt Q9NZQ7 in part)); test: SPR (Reichert), PD-L1-Fc immobilized, antibody in solution, 1:1 model, 25 C
T1 construct: range 19-239; also called PD-L1-Fc fusion protein; dimeric PD-L1-Fc; not shown: human IgG Fc of the bought fusion protein

[3] = target: T1, PD-L1-Fc, human IgG Fc fusion protein, …; test: SPR (Reichert), antibody immobilized directly, PD-L1-Fc in solution, 1:1 model, 25 C
[4] = target: T2, PD-L1-His tagged, human recombinant, HEK293-derived, Phe19-Thr239 (R&D systems Cat #9049-B7-100) (human, UniProt Q9NZQ7 in part); test: SPR (Reichert), antibody immobilized directly, PD-L1-His in solution, 1:1 model, 25 C
T2 construct: range 19-239; also called PD-L1-His ligand; monomeric PD-L1; not shown: His tag

[5] = target: T2, PD-L1-His tagged, human recombinant, …; test: SPR (Reichert), antibody captured by immobilized anti-human IgG, PD-L1-His in solution, 1:1 model, 25 C

B1: B60-55-1 antibody (variant of B60-55) (antibody, human IgG1, kappa, N297A)
heavy: QVQLVQSGAEVKKPASSVKVSCTASGGSFSTYAISWVRQAPGQGLEWMGGIIPIFGTTKYAQRFQGRVTITADESTTTAYMELSSLISDDTALYYCTTSRGFNYGWFDYWGQGTLVTVSSASTKGPSVFPLAPSSKSTSGGTAALGCLVKDYFPEPVTVSWNSGALTSGVHTFPAVLQSSGLYSLSSVVTVPSSSLGTQTYICNVNHKPSNTKVDKKV[sequence of human IgG1 Fc with changes not given]
light: EIVMTQSPATLSLSPGERATLSCRASQSVGIHLAWYQQKPGQAPRLLIYGASSRATGIPDRFSGSGSGTDFTLTISRLEPEDFAVYYCQQYGSLPRTFGQGTKVEIKRTVAAPSVFIFPPSDEQLKSGTASVVCLLNNFYPREAKVQWKVDNALQSGNSQESVTEQDSKDSTYSLSSTLTLSKADYEKHKVYACEVTHQGLSSPVTKSFNRGEC
notes: also called B50-55-1 [sic]
B1 was tested, and the “EC50 of IL-2 secretion in mixed lymphocyte reaction (MLR)” value [1] was 0.467 nM, the Kd [2] was 0.66 nM and the Kd [3] was 0.45 nM. For the same binder, the Kd [4] was 14.3 nM and the Kd [5] was 40.2 nM.
